{"source": "the antibiotic and cytotoxicity screens of Wong et al. (2023)", "note": "Some of the results follow."}
{"test_system": "HSkMC (human skeletal muscle cells)", "experiment": "cytotoxicity call (relative viability < 0.9)", "conditions": "10 µM"}
{"molecule": "C[C@H](CO)N1C[C@H](C)[C@H](CN(C)S(C)(=O)=O)Oc2ccc(NC(=O)Nc3ccccc3)cc2CC1=O", "cytotoxicity call": "active"}
{"molecule": "C[C@H]1CCCCO[C@@H](CN(C)C(=O)Nc2ccc3c(c2)OCO3)[C@@H](C)CN([C@@H](C)CO)C(=O)c2cc(NS(=O)(=O)c3cccs3)ccc2O1", "cytotoxicity call": "inactive"}
{"molecule": "Nc1ncnc2nc(N3CCCCC3)[nH]c12", "cytotoxicity call": "inactive"}
{"molecule": "O=C(NCCCN1CCOCC1)[C@@H]1[C@@H](CO)[C@@H]2Cn3c(cccc3=O)[C@H]1N2C(=O)NC1CCCC1", "cytotoxicity call": "inactive"}
{"molecule": "C[C@H](CO)N1C[C@H](C)[C@H](CN(C)C(=O)Cc2ccncc2)Oc2cc(C#Cc3ccccc3F)ccc2S1(=O)=O", "cytotoxicity call": "inactive"}
{"molecule": "O=C1O[C@H](c2ccccc2)[C@H](c2ccccc2)N2[C@H]1[C@@H](C(=O)N1CCCCCCC1)[C@]1(C(=O)Nc3ccc(C#CC4(O)CCCCCC4)cc31)[C@H]2c1ccccc1OCCO", "cytotoxicity call": "inactive"}
{"molecule": "C[C@H]1CCCCO[C@@H](CN(C)Cc2ccncc2)[C@@H](C)CN([C@@H](C)CO)C(=O)c2cc(NS(C)(=O)=O)ccc2O1", "cytotoxicity call": "inactive"}
{"molecule": "CO[C@H]1CN(C)C(=O)c2ccc(NC(C)=O)cc2OC[C@H](C)N(S(=O)(=O)c2cn(C)cn2)C[C@H]1C", "cytotoxicity call": "inactive"}
{"molecule": "CNC(=O)C[C@@H]1CC[C@@H]2[C@H](COC[C@@H](O)CN2C(=O)Nc2cccc(OC)c2)O1", "cytotoxicity call": "inactive"}
{"molecule": "COc1ccc(S(=O)(=O)Nc2ccc3c(c2)C(=O)N([C@@H](C)CO)C[C@H](C)[C@H](CN(C)C(=O)Nc2ccc(C(F)(F)F)cc2)OCCCC[C@@H](C)O3)cc1", "cytotoxicity call": "inactive"}
{"molecule": "COc1cccc(S(=O)(=O)N(C)C[C@H]2Oc3ncc(Br)cc3C(=O)N([C@H](C)CO)C[C@H]2C)c1", "cytotoxicity call": "inactive"}
{"molecule": "Cc1cc(C(=O)Nc2cccc3c2O[C@@H](CN(C)S(=O)(=O)c2ccccc2)[C@H](C)CN([C@H](C)CO)C3=O)n(C)n1", "cytotoxicity call": "inactive"}
{"molecule": "C[C@H](CO)N1C[C@H](C)[C@H](CN(C)Cc2ccc(Oc3ccccc3)cc2)Oc2c(NC(=O)Nc3ccc(C(F)(F)F)cc3)cccc2C1=O", "cytotoxicity call": "active"}
{"molecule": "C[C@@H]1CCCCO[C@@H](CN(C)S(=O)(=O)c2ccccc2)[C@H](C)CN([C@H](C)CO)C(=O)c2cc(NC(=O)Nc3ccc(F)cc3)ccc2O1", "cytotoxicity call": "inactive"}
{"molecule": "C[C@@H]1CN([C@@H](C)CO)S(=O)(=O)c2ccc(C#Cc3ccccc3F)cc2O[C@H]1CN(C)CC1CCOCC1", "cytotoxicity call": "inactive"}
{"molecule": "C[C@@H]1CN([C@@H](C)CO)C(=O)c2cc(NS(=O)(=O)c3cccs3)ccc2O[C@@H](C)CCCCO[C@@H]1CN(C)C(=O)Nc1ccc(C(F)(F)F)cc1", "cytotoxicity call": "inactive"}
{"molecule": "C[C@H](CO)N1C[C@H](C)[C@H](CN(C)S(C)(=O)=O)Oc2ncc(C#Cc3cccnc3)cc2C1=O", "cytotoxicity call": "inactive"}
{"molecule": "COc1ccc(NC(=O)N(C)C[C@H]2Oc3cc(C#CCN(C)C)ccc3S(=O)(=O)N([C@H](C)CO)C[C@H]2C)cc1", "cytotoxicity call": "inactive"}
{"molecule": "C[C@@H]1CCCCO[C@@H](CN(C)Cc2ccc(C(=O)O)cc2)[C@@H](C)CN([C@@H](C)CO)C(=O)c2cc(NC(=O)Nc3cccc4ccccc34)ccc2O1", "cytotoxicity call": "inactive"}
{"molecule": "COC(=O)C(CC#Cc1ccc2c(c1)[C@]1(C(=O)N2)[C@H](c2ccccc2OCCO)N2[C@H](c3ccccc3)[C@H](c3ccccc3)OC(=O)[C@H]2[C@@H]1C(=O)N1CCc2cc(OC)c(OC)cc2C1)C(=O)OC", "cytotoxicity call": "inactive"}
{"molecule": "CC1C(=O)CCC1=O", "cytotoxicity call": "inactive"}
{"molecule": "C[C@@H]1CN([C@H](C)CO)C(=O)Cc2cc(NC(=O)C3CCCCC3)ccc2O[C@@H]1CN(C)S(=O)(=O)c1cn(C)cn1", "cytotoxicity call": "inactive"}
{"molecule": "O=C(C[C@@H]1CC[C@@H](NC(=O)c2cnccn2)[C@@H](CO)O1)NCc1ccccc1F", "cytotoxicity call": "inactive"}
{"molecule": "C[C@@H]1CN([C@H](C)CO)C(=O)Cc2cc(NC(=O)Cc3cn(C)c4ccccc34)ccc2O[C@@H]1CN(C)Cc1ccc(-c2ccccc2)cc1", "cytotoxicity call": "inactive"}
{"molecule": "COc1ccc(NC(=O)N(C)C[C@@H]2OCCCC[C@@H](C)Oc3ccc(NC(=O)Nc4ccccc4)cc3C(=O)N([C@H](C)CO)C[C@H]2C)cc1", "cytotoxicity call": "inactive"}
{"molecule": "CCS(=O)(=O)Nc1ccc2c(c1)C(=O)N(C)C[C@H](OC)[C@H](C)CN(CCC(F)(F)F)[C@H](C)CO2", "cytotoxicity call": "inactive"}
{"molecule": "CO[C@@H]1CN(C)C(=O)c2ccc(NS(C)(=O)=O)cc2OC[C@H](C)N(C(=O)c2ccc3c(c2)OCO3)C[C@@H]1C", "cytotoxicity call": "inactive"}
{"molecule": "C[C@@H]1CN([C@H](C)CO)C(=O)Cc2cc(NC(=O)Cn3cnnn3)ccc2O[C@H]1CN(C)S(=O)(=O)c1ccccc1", "cytotoxicity call": "inactive"}
{"molecule": "C[C@@H]1CN([C@@H](C)CO)C(=O)c2ccccc2-c2ccccc2CO[C@@H]1CN(C)C(=O)Nc1ccccc1C(F)(F)F", "cytotoxicity call": "inactive"}
{"molecule": "C[C@@H]1CN([C@@H](C)CO)C(=O)c2cccc(NS(=O)(=O)c3ccc(F)cc3)c2O[C@H]1CN(C)S(=O)(=O)c1cn(C)cn1", "cytotoxicity call": "inactive"}
{"molecule": "CC1=C(/C=C/C(C)=C/C=C/C(C)=C/CO)C(C)(C)CCC1", "cytotoxicity call": "inactive"}
{"molecule": "C[C@@H]1CN([C@H](C)CO)C(=O)c2cc(NC(=O)Cn3cnnn3)ccc2O[C@H]1CN(C)C(=O)Nc1cccc2ccccc12", "cytotoxicity call": "inactive"}
{"molecule": "C[C@@H]1CN([C@H](C)CO)C(=O)c2cc(NC(=O)CCN3CCOCC3)ccc2O[C@H]1CN(C)C(=O)Nc1ccc2c(c1)OCO2", "cytotoxicity call": "inactive"}
{"molecule": "COc1ccc([Si](C)(C)[C@@H]2[C@@H](CC(=O)N(CCO)Cc3ccccc3)O[C@]3(C(=O)N(Cc4ccc(N5C(=O)c6cccc7cccc5c67)cc4)c4ccccc43)[C@H]2C)cc1", "cytotoxicity call": "inactive"}
{"molecule": "CC(C)NC(=O)N(C)C[C@@H]1Oc2ccc(NC(=O)NC3CCCCC3)cc2C(=O)N([C@H](C)CO)C[C@@H]1C", "cytotoxicity call": "inactive"}
{"molecule": "COCC#Cc1ccc2c(c1)O[C@@H](CN(C)S(=O)(=O)c1cccc(F)c1)[C@H](C)CN([C@@H](C)CO)S2(=O)=O", "cytotoxicity call": "inactive"}
{"molecule": "C[C@@H]1CN([C@H](C)CO)C(=O)c2cc(C#Cc3ccc(F)cc3)cnc2O[C@H]1CN(C)CC1CCOCC1", "cytotoxicity call": "inactive"}
{"molecule": "COc1cccc(NC(=O)N2C[C@H](O)COC[C@H]3O[C@H](CC(=O)NC4Cc5ccccc5C4)CC[C@@H]32)c1", "cytotoxicity call": "inactive"}
{"molecule": "CN(C)CCCNC(=O)C[C@@H]1C=C[C@@H](NS(=O)(=O)c2ccccc2)[C@@H](CO)O1", "cytotoxicity call": "inactive"}
{"molecule": "C[C@@H]1CN([C@H](C)CO)C(=O)c2cc(NC(=O)CCC(F)(F)F)ccc2O[C@@H](C)CCCCO[C@@H]1CN(C)Cc1ccncc1", "cytotoxicity call": "inactive"}
